Laboratory results taken from patent US12377163B2, “Anti-B7H3 antibody-exatecan analog conjugate and medicinal use thereof” (JIANGSU HANSOH PHARMACEUTICAL GROUP CO., LTD, priority 2018, dated 2025).

Columns and labels:
U87MG cells = assay: In vitro endocytosis test; assay type: cell-based, human; settings: 37° C., 0-120 minutes
Procedure: In this experiment, the endocytosis effect of the antibody was evaluated based on the intensity of fluorescence signal of the intracellular antibody. The B7-H3 antibody and APC anti-human IgG Fc (Biolegend, 409306) were mixed at a molar ratio of 1:2 and incubated on ice for 15 minutes. The antibody mixture was incubated with 2×10^5 U87MG cells (human brain astroblastoma, Chinese Academy of Sciences cell bank, Catalog #TCHu138) on ice for 30 minutes, and excess antibody was removed by washing. The cells were transferred to a 37° C. prewarmed medium, and incubated at 37° C. for 0, 15, 30, 60 and 120 minutes respectively. The cells were centrifuged and resuspended in the antibody elution solution (0.05M glycine, 0.1M NaCl, pH 2.45). After incubating for 7 minutes at room temperature, the antibody elution solution was removed by washing, and the intracellular fluorescence signal was read using BD Verse (results shown in FIG. 1).

[1] = T1/2 evaluation on SD rats; assay type: in vivo; settings: SD rat, IV 3 mg/kg
Procedure: 4 SD rats (purchased from Shanghai JieSiJie Laboratory Animal Co., Ltd., half male and half female) were maintained in light/dark cycle adjusted at 12/12 hours, with constant temperature of 24±3° C., humidity of 50-60%, and free access to food and water. On the day of the experiment, SD rats were injected with the test agent B7H3 antibody/ADC respectively into tail vein at a dose of 3 mg/kg and an injection volume of 5 ml/kg.
The time point for blood collection: On the first day of administration, blood was taken from ocular fundus vein at 5 min, 8 h, 24 h (Day 2), Day 3, Day 5, Day 8, Day 11 and Day 15 after administration, each 200 μL (equivalent to 100 μL of serum). The collected blood samples were left to stand at room temperature for half an hour until coagulation, and then centrifuged at 10,000×g at 4° C. for 10 minutes. The supernatant was collected and immediately stored at −80° C.
The B7H3 antibody concentration in the serum was measured by ELISA, and PK analysis was performed.

[2] = Chemical stability of the B7H3 antibody (40° C., LC-MS of modification sites); assay type: physicochemical; settings: PBS pH 7.4, 40° C.
Procedure: Chemical modification after antibody preparation is one of the common reasons leading to the product stability problem, especially the high degree of deamination, oxidation or isomerization modification at some amino acids in the CDR region. Those modifications should be avoided or reduced. 500 μg of the antibody to be tested was dissolved in 500 μl of PBS (pH 7.4), and subjected to a water bath at 40° C. Samples were taken at day 0, 10, and 20 respectively for enzymatic hydrolysis experiments. 100 μg of samples were taken at different time points and dissolved in 100 μl of 0.2 M His-HCl (histidine hydrochloride buffer) and 8 M Gua-HCl (pH 6.0, citrulline hydrochloride buffer). 3 μl of 0.1 g/mL DTT (dithiothreitol) was added, and subjected to water bath at 50° C. for 1 hour. The samples were ultra-filtered twice with 0.02 M His-HCl solution (pH 6.0), and 3 μL of 0.25 mg/mL trypsin (invitrogen, CAT#25200-072) was added. The mixture was subjected to enzymolysis overnight at 37° C. in a water bath. LC-MS was carried out using Agilent 6530 Q-TOF, and potential modification sites were analyzed by mass spectrometry (the results are shown in Table 4).

[3] = Antibody stability, SEC test; assay type: physicochemical
Procedure: (§1) The stability of h1702 and h1702DS was tested by SEC, non-reducing CE-SDS test method (pH 9.0) and IEX test method.
SEC test: Waters e2695 chromatograph and Xbridge BEH 200A SEC column were used. 50 μg of antibody was loaded, and eluted with PBS mobile phase in constant gradient.

[4] = Antibody stability, non-reducing CE-SDS (pH 9.0); assay type: physicochemical
Procedure: as §1
Samples were processed using the Beckman SDS-MW Analysis Kit. 100 μg of protein was added with a buffer solution, and heated to denature. Data was collected using PA800 capillary electrophoresis apparatus.

[5] = Antibody stability, IEX test; assay type: physicochemical
Procedure: as §1
Waters Acquity H-Class chromatograph and Thermo MAbPac SCX-10 column were used. 50 μg of the antibody was loaded, and a linear gradient was applied, using CX-1 pH Gradient Buffer Kit as the mobile phase. Ultraviolet signal at a wavelength of 280 nm was collected.

B1: h1702: fully humanized anti-B7H3 antibody, heavy chain SEQ ID NO: 14 and light chain SEQ ID NO: 15 (antibody)
heavy: QVQLVQSGGGVVQPGTSLRLSCAASGFIFSSSAMHWVRQAPGKGLEWVAVISYDGSNKYYVDSVKGRFTISRDNSKNTLYLQMNSLRAEDTAVYYCARSARLYASFDYWGQGALVTVSS[human IgG1 constant region not listed]
light: QTVVTQEPSFSVSPGGTVTLTCGLSSGSVSTSHYPSWYQQTPGQAPRMLIYNTNTRSSGVPDRFSGSILGNKAALTITGAQADDESDYYCAIHVDRDIWVFGGGTKLTVLGQPKANPTVTLFPPSSEELQANKATLVCLISDFYPGAVTVAWKADGSPVKAGVETTKPSKQSNNKYAASSYLSLTPEQWKSHRSYSCQVTHEGSTVEKTVAPTECS
modifications: Synthetic Sequence_Heavy chain (IgG1) amino acid sequence of 1702; Synthetic Sequence_Light chain amino acid sequence of 1702
- endocytosis effect (intracellular fluorescence signal) (U87MG cells): efficiently endocytosed into cells
- half-life in rats [1]: ~185 h
- HC M34/oxidation, Day 0 ([2]; Day 0): 3.52%
- HC M83/oxidation, Day 0 ([2]; Day 0): 0.98%
- LC M48/oxidation, Day 0 ([2]; Day 0): 2.82%
- HC M34/oxidation, Day 10 ([2]; Day 10): 3.46%
- HC M83/oxidation, Day 10 ([2]; Day 10): 1.01%
- LC M48/oxidation, Day 10 ([2]; Day 10): 2.9%
- HC M34/oxidation, Day 20 ([2]; Day 20): 3.38%
- HC M83/oxidation, Day 20 ([2]; Day 20): 0.01%
- LC M48/oxidation, Day 20 ([2]; Day 20): 2.83%
- tendency towards deamidation, oxidation or heterogeneity ([2]; day 0, 10, 20): no significantly increased tendency towards deamidation, oxidation or heterogeneity
- SEC [3]: 100%
- CE-SDS (pH9.0) [4]: 71.21%
- IEX [5]: 40.5%
